# Laboratory results as given in the supplement of paper PMC8728848.
# Some of the results follow.
# How the values were obtained:
# Experiment in all cases: glycan array binding signal (z-score within array); higher = stronger binding
# Conditions in all cases: glycan notation: IUPAC condensed, linker removed
# [1] = molecular target: Neu5Ac(a2-8)Neu5Ac
# Procedure, shortened: (§1)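 From the Consortium for Functional Glycomics database, 3228 arrays were curated, keeping only those whose protein sequence was available. Binding is given as a within-array Z-score averaged across arrays sharing a protein sequence and across linkers. Negative Z-scores can be read as non-binding.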
# [2] = molecular target: Neu5Ac(a2-8)Neu5Ac(a2-3)Gal(b1-3)GalNAc(b1-4)[Neu5Ac(a2-3)]Gal(b1-4)Glc
# Procedure, shortened: as §1
# [3] = molecular target: Neu5Ac(a2-8)Neu5Ac(a2-3)Gal(b1-3)GalNAc(b1-4)[Neu5Ac(a2-8)Neu5Ac(a2-3)]Gal(b1-4)Glc
# Procedure, shortened: as §1
# [4] = molecular target: Neu5Ac(a2-8)Neu5Ac(a2-3)Gal(b1-4)Glc
# Procedure, shortened: as §1
# [5] = molecular target: Neu5Ac(a2-8)Neu5Ac(a2-3)Gal(b1-4)GlcNAc
# Procedure, shortened: as §1
# [6] = molecular target: Neu5Ac(a2-8)Neu5Ac(a2-3)[Gal(b1-3)GalNAc(b1-4)]Gal(b1-4)Glc
# Procedure, shortened: as §1
# [7] = molecular target: Neu5Ac(a2-8)Neu5Ac(a2-3)[GalNAc(b1-4)]Gal(b1-4)Glc
# Procedure, shortened: as §1
# [8] = molecular target: Neu5Ac(a2-8)Neu5Ac(a2-8)Neu5Ac
# Procedure, shortened: as §1
# [9] = molecular target: Neu5Ac(a2-8)Neu5Ac(a2-8)Neu5Ac(a2-3)Gal(b1-4)Glc
# Procedure, shortened: as §1
# [10] = molecular target: Neu5Ac(a2-8)Neu5Ac(a2-8)Neu5Ac(a2-3)[Gal(b1-3)GalNAc(b1-4)]Gal(b1-4)Glc
# Procedure, shortened: as §1
# [11] = molecular target: Neu5Ac(a2-8)Neu5Ac(a2-8)Neu5Ac(a2-3)[GalNAc(b1-4)]Gal(b1-4)Glc
# Procedure, shortened: as §1
# [12] = molecular target: Neu5Ac(a2-8)Neu5Ac(a2-8)Neu5Ac(a2-8)Neu5Ac(a2-3)[GalNAc(b1-4)]Gal(b1-4)Glc
# Procedure, shortened: as §1
# [13] = molecular target: Neu5Ac(a2-8)Neu5Gc(a2-3)Gal(b1-4)GlcNAc
# Procedure, shortened: as §1
# [14] = molecular target: Neu5Ac(b2-6)Gal(b1-4)GlcNAc
# Procedure, shortened: as §1
# [15] = molecular target: Neu5Ac(b2-6)GalNAc
# Procedure, shortened: as §1
# [16] = molecular target: Neu5Ac9Ac(a2-3)Gal(b1-3)GlcNAc
# Procedure, shortened: as §1
# [17] = molecular target: Neu5Ac9Ac(a2-3)Gal(b1-4)GlcNAc
# Procedure, shortened: as §1
# [18] = molecular target: Neu5Ac9Ac(a2-6)Gal(b1-4)GlcNAc
# Procedure, shortened: as §1
# [19] = molecular target: Neu5Gc(a2-3)Gal(b1-3)GlcNAc
# Procedure, shortened: as §1
# [20] = molecular target: Neu5Gc(a2-3)Gal(b1-3)[Fuc(a1-4)]GlcNAc
# Procedure, shortened: as §1
# [21] = molecular target: Neu5Gc(a2-3)Gal(b1-4)Glc
# Procedure, shortened: as §1
# [22] = molecular target: Neu5Gc(a2-3)Gal(b1-4)GlcNAc
# Procedure, shortened: as §1
# [23] = molecular target: Neu5Gc(a2-3)Gal(b1-4)GlcNAc(b1-3)Gal(b1-4)GlcNAc(b1-2)Man(a1-3)[Neu5Gc(a2-3)Gal(b1-4)GlcNAc(b1-3)Gal(b1-4)GlcNAc(b1-2)Man(a1-6)]Man(b1-4)GlcNAc(b1-4)GlcNAc
# Procedure, shortened: as §1
# [24] = molecular target: Neu5Gc(a2-3)Gal(b1-4)[Fuc(a1-3)]GlcNAc
# Procedure, shortened: as §1
# [25] = molecular target: Neu5Gc(a2-6)Gal(b1-4)GlcNAc
# Procedure, shortened: as §1
# [26] = molecular target: Neu5Gc(a2-6)GalNAc
# Procedure, shortened: as §1
# [27] = molecular target: Neu5Gc(a2-8)Neu5Ac(a2-3)Gal(b1-4)GlcNAc
# Procedure, shortened: as §1
# [28] = molecular target: Neu5Gc(a2-8)Neu5Gc(a2-3)Gal(b1-4)GlcNAc
# Procedure, shortened: as §1
# [29] = molecular target: Neu5Gc(a2-8)Neu5Gc(a2-3)Gal(b1-4)GlcNAc(b1-3)Gal(b1-4)GlcNAc
# Procedure, shortened: as §1
# [30] = molecular target: Neu5Gc(a2-8)Neu5Gc(a2-6)Gal(b1-4)GlcNAc
# Procedure, shortened: as §1
# [31] = molecular target: Neu5Gc(b2-6)Gal(b1-4)GlcNAc
# Procedure, shortened: as §1
binder,measurement,setting,value
Epa3to1 (Candida glabrata) (protein) MGSSHHHHHHSSGLVPRGSHMKRELSSQNPFGYPIGCSPQDVAIIPGLTMELYSYPIVSGTPPNCYDASYVDPEYPRTGYLKRKMVGKSTGVTGNLNYKYSVEKACMVKYGNLPAGYNYNEPLTVSNFTMILYGYFKAQTTGLHTFFVNADDLLYINFGAGNAFDCCKREDSKTKLGEYVAYDIWHVDSSKNKVSLFLEKDLYYPIRMFFNNREYDSSLDLSFSVNGATDQISDFSGYLYSVPDQPDTCPAHIGYDTTCR,glycan array binding signal (z-score),[1],-0.243
same,glycan array binding signal (z-score),[2],0.246
same,glycan array binding signal (z-score),[3],-0.377
same,glycan array binding signal (z-score),[4],-0.596
same,glycan array binding signal (z-score),[5],-0.418
same,glycan array binding signal (z-score),[6],-0.126
same,glycan array binding signal (z-score),[7],1.5
same,glycan array binding signal (z-score),[8],-0.101
same,glycan array binding signal (z-score),[9],0.154
same,glycan array binding signal (z-score),[10],-0.599
same,glycan array binding signal (z-score),[11],0.817
same,glycan array binding signal (z-score),[12],0.388
same,glycan array binding signal (z-score),[13],-0.798
same,glycan array binding signal (z-score),[14],-0.832
same,glycan array binding signal (z-score),[15],-0.426
same,glycan array binding signal (z-score),[16],-0.225
same,glycan array binding signal (z-score),[17],-0.428
same,glycan array binding signal (z-score),[18],0.523
same,glycan array binding signal (z-score),[19],-0.346
same,glycan array binding signal (z-score),[20],-0.353
same,glycan array binding signal (z-score),[21],0.281
same,glycan array binding signal (z-score),[22],-0.293
same,glycan array binding signal (z-score),[23],-0.254
same,glycan array binding signal (z-score),[24],-1.38
same,glycan array binding signal (z-score),[25],1.61
same,glycan array binding signal (z-score),[26],-0.399
same,glycan array binding signal (z-score),[27],-0.818
same,glycan array binding signal (z-score),[28],-0.541
same,glycan array binding signal (z-score),[29],0.126
same,glycan array binding signal (z-score),[30],-0.59
same,glycan array binding signal (z-score),[31],0.023
